Test results taken from publication PMC10320511.
No constants are given. Whether binding was seen depends on the method and setting. In cells and extracts the contact can be indirect. Some results given as binding are weak or reduced against the parent protein; the word gives no strength. Where a sequence is shown, tags or fusion partners need not be part of it.

B1: White Collar-2 (WC-2) (protein, UniProt P78714 1-530)
chain: MSHGQPPPGSSMYGFGAMGMGSGMGSGMGSGMGTGMGTGMGTGMSASQMTSDPQDMMSLLDTSVFPGFDGMSMSLDVGDSMSNPFTPVSVPPPLPAGNAGPSHVGVCGGHGAPDQLFSPDDLIATSMSSAGPMIATPTTTTSGPSGGPSSGGGSTLTEFTKRRNWPAKVVEELQDWEHILDANGRIKHVSPSVEPLTGYKPPEIIDLFLRDLIHPDDVGVFTAELNEAIATGSQLRLFYRFRKKDGNWTIFETVGHAHIAAAKFAPNPQNQSPFCQAVFMMARPYPTKNAGLLDSFLEHKIENERLKRRIAELRREEQEEQEESHRTWRMSQEGRSDVTPSDDTATQMGMTPFYIPMNAQADVMMPPPSQPASSLNIALTRENLEGIAGSRPDSIREKMLRYEGNHADTIEMLTGLKYQEGERSHGITTGNASPTLIKGDAGIAIPLDRDPRTGEKKKKIKVAEEYVCTDCGTLDSPEWRKGPSGPKTLCNACGLRWAKKEKKKNANNNNNGGGIGGHNDIHTPMGDHMG
B2: FRQ-interacting RNA helicase (FRH) (protein, UniProt Q1K502 1-1106)
chain: MDDLFEVFEEQPRAQKKRKASPDVEMADGAAAAAPVANAAAAVTHPQAQAAPAPQKDNIDNNDNNNNNTTTSAVQPTIPNGDAAAAADDVQSPQSPHGLGDNKRRKKTDEAEPIMTDAFQTAESREVTGAQGFAPTEGESIVLSHNIQHQVALPPDLDYEYIPLSEHKPPAEPARTYSFKLDPFQALSVASIEREESVLVSAHTSAGKTVVAEYAIAQCLKKNQRVIYTSPIKALSNQKYRDFQAEFGDVGLMTGDVTINPTASCLVMTTEILRSMLYRGSEIMREVAWVVFDEIHYMRDKIRGVVWEETIILLPDKVRYVFLSATIPNAFQFAEWIAKIHRQACHVVYTDFRPTPLQNYFFPAGGKGILLIVDEKGNFKENNFNQAMAMIEEKKGTDSNDWSAKQKGKGKNKKTNKGGEAADEKADIAKIIKMILKKNFQPVIVFNFSKRECEQMALASSSMKFNAPDEENMVNKVFENALASLSEDDKNLPQISNILPLLRKGIGVHHSGLLPILKETIEILFQEGLIKVLFATETFSIGLNMPARTVVFTQVTKWDGQQRRPLTSSEYIQMAGRAGRRGLDDRGIVIMMVDDKLEPETARAIVVGNQDKLNSAFHLGYNMVLNLLRIEAISPEYMLERCFFQFQNAASVPQLERELISLQQERDAIIIPDESIVKDYYGVRQQLEEYNKDMVFVIQHPQNCLGFFQEGRLIHIKSPSGVDYGWGVLIKHIQRQTPKNGQPPYPEQESYVLDVLLKVSGDFNPKTRGEGPMPEGIMPAGKDSKNARWEVVPCLLNCLRALGQLRVFLPKRLESADEKDGVGKAVDEISRRFPDGIPILDPMENMGINDDSFKKLLRKIEVLESRLVANPLHNSPLLVELWNQYSLKMQLGEQIKEKKKAIARAHSVAQLDELKSRKRVLRRLGFINDAEVVQMKARVACEISSTEGHELLLAELLFNRFFNELSPEICACILSCFIFDEKIETQALKEELAKPFREIQAQARIIAKVSAESKLDVNEDEYVQSLKWQLMETVLAWAQGRPFSEICKMTNVYEGSLIRLFRRLEELLRQMAEAARVMGSEELKDKFELSLSKIRRDIVSFNSLYL

Columns and labels:
[1] = target: T1, FRQ Δ564–603, V5H6-tagged (Neurospora crassa) (UniProt P19970); experiment: co-IP; V5H6-tagged FRQ (wild type or mutant) pulled down with V5 agarose from Neurospora lysate (cultures in the light, 25 °C); 50 mM Hepes pH 7.4, 137 mM NaCl, 10% glycerol, 0.4% NP-40; 4 °C, 2 h; Western blot with FRQ, FRH, WC-1 and WC-2 antibodies
T1 sequence: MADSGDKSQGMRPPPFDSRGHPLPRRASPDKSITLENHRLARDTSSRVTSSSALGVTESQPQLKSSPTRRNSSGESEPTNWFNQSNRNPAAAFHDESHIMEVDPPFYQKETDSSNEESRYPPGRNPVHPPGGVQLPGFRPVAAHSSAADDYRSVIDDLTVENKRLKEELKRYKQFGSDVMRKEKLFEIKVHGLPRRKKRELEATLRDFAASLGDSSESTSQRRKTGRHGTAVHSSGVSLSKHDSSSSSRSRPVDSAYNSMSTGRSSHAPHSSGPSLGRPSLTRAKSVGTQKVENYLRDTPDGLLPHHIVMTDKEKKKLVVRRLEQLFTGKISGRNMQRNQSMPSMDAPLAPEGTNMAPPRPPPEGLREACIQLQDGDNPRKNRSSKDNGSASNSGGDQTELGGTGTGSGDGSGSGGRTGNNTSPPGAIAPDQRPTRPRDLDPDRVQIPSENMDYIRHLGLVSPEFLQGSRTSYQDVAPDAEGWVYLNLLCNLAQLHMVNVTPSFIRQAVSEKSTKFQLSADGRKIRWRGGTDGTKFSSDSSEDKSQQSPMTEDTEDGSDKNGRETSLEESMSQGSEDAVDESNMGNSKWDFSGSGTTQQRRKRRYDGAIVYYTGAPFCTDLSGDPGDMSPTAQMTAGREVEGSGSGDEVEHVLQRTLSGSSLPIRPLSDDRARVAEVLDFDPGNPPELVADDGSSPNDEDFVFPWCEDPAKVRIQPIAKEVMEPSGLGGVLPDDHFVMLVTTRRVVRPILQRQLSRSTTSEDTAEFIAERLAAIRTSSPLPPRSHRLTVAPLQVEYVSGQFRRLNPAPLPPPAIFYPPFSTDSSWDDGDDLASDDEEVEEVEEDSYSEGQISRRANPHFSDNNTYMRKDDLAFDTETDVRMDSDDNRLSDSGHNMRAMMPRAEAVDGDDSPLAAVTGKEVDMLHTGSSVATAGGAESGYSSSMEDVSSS

[2] = target: T2, FRQ E200A, E202A, D207A, V5H6-tagged (Neurospora crassa) (UniProt P19970); experiment: as above
T2 sequence: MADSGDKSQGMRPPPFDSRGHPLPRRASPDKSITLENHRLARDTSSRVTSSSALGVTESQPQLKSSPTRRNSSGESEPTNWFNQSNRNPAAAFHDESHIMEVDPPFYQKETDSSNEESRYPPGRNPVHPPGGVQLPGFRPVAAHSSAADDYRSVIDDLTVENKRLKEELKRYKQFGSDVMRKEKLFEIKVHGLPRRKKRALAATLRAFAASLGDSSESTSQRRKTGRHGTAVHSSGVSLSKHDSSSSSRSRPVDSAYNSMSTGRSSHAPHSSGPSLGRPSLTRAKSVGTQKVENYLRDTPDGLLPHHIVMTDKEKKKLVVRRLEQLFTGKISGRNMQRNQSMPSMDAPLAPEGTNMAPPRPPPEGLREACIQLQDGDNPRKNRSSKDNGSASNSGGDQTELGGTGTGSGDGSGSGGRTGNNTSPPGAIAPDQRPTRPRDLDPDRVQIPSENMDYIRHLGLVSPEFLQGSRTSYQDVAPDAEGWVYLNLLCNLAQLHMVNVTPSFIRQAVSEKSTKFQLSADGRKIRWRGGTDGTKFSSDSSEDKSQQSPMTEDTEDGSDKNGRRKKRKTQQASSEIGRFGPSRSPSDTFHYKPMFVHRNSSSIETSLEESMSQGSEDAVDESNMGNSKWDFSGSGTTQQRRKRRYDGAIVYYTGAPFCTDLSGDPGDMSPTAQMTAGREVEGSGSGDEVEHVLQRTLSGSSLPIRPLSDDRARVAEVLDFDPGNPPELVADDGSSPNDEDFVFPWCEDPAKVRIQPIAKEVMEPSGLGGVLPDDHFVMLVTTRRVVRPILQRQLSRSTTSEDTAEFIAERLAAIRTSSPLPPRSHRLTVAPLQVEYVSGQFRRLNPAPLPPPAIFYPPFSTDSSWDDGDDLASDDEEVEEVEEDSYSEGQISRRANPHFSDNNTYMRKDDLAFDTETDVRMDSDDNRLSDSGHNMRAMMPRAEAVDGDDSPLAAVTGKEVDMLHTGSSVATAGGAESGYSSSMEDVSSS

Row | binding [1] | binding [2] | Binder
1 | binds weakly | – | B1
2 | – | binds | B2
